Experimental data reported in the RNAGym collection of RNA variant scans (doi:10.7554/elife.90254).
The source gives no read counts; variants with many changes may rest on few reads.

B1: OR4K15 (parent)
chain: GUUAACGGUCAUAGGCCAUGGAAACUAGGAGCACCAUUUCGCUGCCAGUGAAGAAAUGAACAAAGAAAAUCUGGGCCAGGCAGGCAUCAAAAGAAAUAGUCUUGCGCUCAACCAGAAAGUCUGUAAUCAUUUUAAGGGUA

Variants of: B1
Test: self-cleavage, relative activity (ratio to wild type); higher = more cleavage; in vitro, sequencing; the parent is a self-cleaving ribozyme

| Variant | self-cleavage |
| --- | --- |
| A52G U70C A117C | 0.17 |
| A52G U70C U122C | 0.62 |
| A52G U72A A90G U131C | 0.12 |
| A52G U72C U122C | 0.15 |
| A52G U87C U100A U127A | 0.56 |
| A52G U87C U100C A117G | 2.69 |
| A52G U100A A118G A129U | 0.14 |
| A52G U100C A111U C121U | 0.41 |
| A52G U102C U127C | 1.98 |
| A52G U103C U130C | 0.25 |
| A52G U108C A135U | 0.01 |
| A52G U122C A134U A140U | 0.75 |
| A52G U122C U130C | 0.68 |
| A52U A59G A111G | 0.04 |
| A52U A59G C61U A69G A78G U87G A89G | 0.12 |
| A52U A60C U87C U127C | 1.95 |
| A52U A67G U87C U131C U139C | 1.62 |
| A52U A68U U108C | 0.01 |
| A52U A68U U120C | 1.17 |
| A52U A78G A117G | 0.51 |
| A52U A86U A89G U120C A134G | 1.27 |

| Variant | self-cleavage |
| --- | --- |
| A52U A90G U100C | 1.13 |
| A52U A92U A129G | 1.2 |
| A52U A111G U120C | 0 |
| A52U A125U A129U | 0.76 |
| A52U G74U A90G U103C | 0.04 |
| A52U U57C U70C U97A A111G U122A A129G | 0 |
| A52U U57C U97C A98G | 0.81 |
| A52U U97C U108A | 0 |
| A52U U100A U132C | 0.33 |
| G53A A54G A82U A111G | 0.04 |
| G53A A60G U122C | 1.64 |
| G53A A69U U72C A118G U127C | 0.03 |
| G53A A94G A118G U120C | 0.47 |
| G53A C76U G137U | 0.15 |
| G53A U97C U132A | 1.28 |
| G53C A111G U122C | 0.01 |
| G53U A59G C77U | 1.73 |
| G53U A60G A94G U97C A98G A140G | 1.07 |
| G53U A66G U122A | 0.91 |
| G53U A96G U100C A116G A118G | 0.32 |
| G53U A126G A129G | 0.72 |

| Variant | self-cleavage |
| --- | --- |
| G53U U87C U108C | 0.02 |
| A54C A63G U124C | 0.45 |
| A54G A55G A59U U70C U97C A117G | 0.44 |
| A54G A55G A64G U127C | 1.05 |
| A54G A55G A98G | 0.49 |
| A54G A55G A116G A135U | 0.44 |
| A54G A56G A89G | 2.25 |
| A54G A56G U70C U127C | 0.43 |
| A54G A59G A125U A129G | 0.99 |
| A54G A59G U130C | 0.69 |
| A54G A60G U100C U103G A110G | 0.02 |
| A54G A62G A94G | 1.39 |
| A54G A62G U87C A118G | 1.15 |
| A54G A62U A96G A110G C121U | 0.22 |
| A54G A63G A82G A91C U102C U130C | 0.86 |
| A54G A63G A114U U127C | 0.02 |
| A54G A63G C77U U108A | 0.03 |
| A54G A64U U122G | 1.99 |
| A54G A66G A68G | 0.91 |
| A54G A66G A89G | 1.39 |
| A54G A66G G74C A96U A117G A140G | 0.13 |

| Variant | self-cleavage |
| --- | --- |
| A54G A67C A68G A95G | 2.23 |
| A54G A67G G83U A89G U108C A126G | 0 |
| A54G A67G U72C A90G A111G A125G | 0.01 |
| A54G A68G A94G U132C | 2.26 |
| A54G A68G A95G A129G | 1.45 |
| A54G A68G A98G U108C | 0.01 |
| A54G A68G U131C | 0.92 |
| A54G A69G A89G U97A A98G U131C | 0.89 |
| A54G A69G G119A | 1.17 |
| A54G A69G U108C | 0.05 |
| A54G A78C A91G U103C C105U A116G | 0.02 |
| A54G A78G A111G | 0.04 |
| A54G A78G U131C A140G | 0.15 |
| A54G A78U U87C A117G | 0.09 |
| A54G A82G A90G U122A | 0.06 |
| A54G A82G U100C | 1.23 |
| A54G A82U A90G C109U A126G U127A | 0.02 |
| A54G A86G A90U A126G | 1.05 |
| A54G A89G A111G | 0.03 |
| A54G A89U U108C | 0.01 |
| A54G A90C A98G | 0.19 |
